From PubChem BioAssay AID485281 (National Center for Advancing Translational Sciences (NCATS), 2010)
About 260 (0.074%) of roughly 350,000 compounds were called active. The shares of active, inactive and inconclusive entries below differ from those in the screen. The call rests on the fitted dose curve; in most records, active means well fitted inhibition curve with a large enough effect; inconclusive means small, poorly fitted or top-dose-only effect; inactive means no such curve, though single readings can be large or run the other way. Where the call is inconclusive, the potency comes from a doubtful curve fit.

Target: Ferritin light chain (Equus caballus) (UniProt P02791)
Experiment: qHTS Assay for Identification of Novel General Anesthetics; further: nearly all actives have a fitted effect of over 20% in size
Settings: apoferritin/1-aminoanthracene competitive binding, fluorescence; series mostly up to 77.5 µM
Outline: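 Horse-spleen apoferritin (10 uM) was mixed with 50% saturated 1-aminoanthracene in PBS, exposed to compounds for 10 min at room temperature, and read for fluorescence (ex 380 nm, em 535 nm). Competitive displacement was fitted with a four-parameter Hill equation.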
Potency means the concentration at half of the fitted maximal effect; tags describe the fitted curve by direction and shape.

Sequence of UniProt P02791 (P02791 whole entry, looked up): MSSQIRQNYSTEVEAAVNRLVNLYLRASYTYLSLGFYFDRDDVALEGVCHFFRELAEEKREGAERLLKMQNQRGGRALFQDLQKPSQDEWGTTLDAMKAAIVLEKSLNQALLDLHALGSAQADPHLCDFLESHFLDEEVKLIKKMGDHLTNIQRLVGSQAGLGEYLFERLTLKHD

| Structure (SMILES) | Potency |
| --- | --- |
| CC1=C(/C=C/C(C)=C/C=C/C(C)=C/C=C/C=C(C)/C=C/C=C(C)/C=C/C2=C(C)C(=O)CCC2(C)C)C(C)(C)CCC1=O | inconclusive: 35.5 µM [inhibitor, single point] |
| CCCCN1CCc2c1nc1ccc(Br)cc1c2N | inconclusive: 35.5 µM [inhibitor, single point] |
| CN(C(=O)CSC(=O)c1ccccc1)c1ccccc1 | inconclusive: 56.2 µM [inhibitor, single point] |
| O=C(CNC(=O)c1cccc(Br)c1)N/N=C/c1ccc2c(c1)OCO2 | inconclusive: 10 µM [inhibitor, partial curve, poor fit] |
| CC(C)n1cnc2cc(NCc3ccco3)ccc21 | inactive |
| O=C(NCCc1csc(-c2cccnc2)n1)c1cccc(C(F)(F)F)c1 | inconclusive: 3.98 µM [inhibitor, partial curve] |
| COc1cccc(NC(=O)c2cccc(C(=O)Nc3cccc(OC)c3)c2)c1 | inactive |
| CCCC(=O)OCC(=O)NCc1ccc(Cl)cc1 | inactive |
| Cc1cccc(NCCNc2cccc(C)c2)c1 | inconclusive: 39.8 µM [inhibitor, single point] |
| O=C(O)C1CC=CCC1C(=O)Nc1cccc(Cl)c1 (stereo not drawn) | inconclusive: 35.5 µM [inhibitor, partial curve] |
| CCOC(=O)c1sc(N=NC2=C(O)CCCC2=O)c(C(=O)OCC)c1C | inconclusive: 35.5 µM [inhibitor, single point] |
| Cc1cc(OCC(=O)Nc2ccc(S(=O)(=O)N3CCN(C)CC3)cc2)cc(C)c1Cl | inconclusive: 50.1 µM [inhibitor, single point] |
| O=C(c1cc(F)ccc1F)C1CCCN(C(=O)c2cccs2)C1 (stereo not drawn) | inconclusive: 39.8 µM [inhibitor, single point] |
| COc1cc(SC)ccc1C(=O)NCc1ccc(C)cc1 | inconclusive: 35.5 µM [inhibitor, partial curve] |
| O=C1CC(c2cccc([N+](=O)[O-])c2)c2ccc3ccccc3c2N1 (stereo not drawn) | inconclusive: 12.6 µM [inhibitor, partial curve] |
| c1ccc(-c2ccc(-c3cnc4n3CCCCC4)cc2)cc1 | inconclusive: 20 µM [inhibitor, partial curve] |
| CCOc1ccc(-n2c(SCc3nc(-c4ccc(OC)cc4)no3)nnc2-c2ccncc2)cc1 | inconclusive: 31.6 µM [inhibitor, partial curve] |
| CCCCCCCCCC(=O)N/N=C(\C)c1cccnc1 | inconclusive: 39.8 µM [inhibitor, partial curve] |
| CSc1ccccc1OCc1cc(C(=O)NCc2csc(C(C)C)n2)no1 | inconclusive: 14.1 µM [inhibitor, partial curve] |
| COc1ccc(Br)cc1CNC(=O)c1cc2ccccn2n1 | inactive |
| O=c1[nH]c(CN2CCN(Cc3ccccc3)CC2)nc2scc(-c3ccccc3)c12 | inconclusive: 35.5 µM [inhibitor, partial curve] |
| CCCCCN(C(=O)CCC(=O)OCc1ccc(C(C)(C)C)cc1)c1c(N)n(CCCC)c(=O)[nH]c1=O | inactive |

| Structure (SMILES) | Potency |
| --- | --- |
| Cn1c(CN2CCCCC2)nc2cc(NC(=O)c3cccc(Br)c3)ccc21 | inconclusive: 28.2 µM [inhibitor, partial curve] |
| O=C1C(=Cc2cccn2-c2ccccc2)C(=O)c2ccccc21 | inactive |
| CCC(Oc1ccccc1)C(=O)Nc1ccc(O)c(-c2nc3cc(C)ccc3o2)c1 (stereo not drawn) | inactive |
| CCn1cc(C(=O)NCCCOC(C)C)c(=O)c2cc(S(=O)(=O)N3CCc4ccccc4C3)ccc21 | inconclusive: 50.1 µM [inhibitor, single point] |
| COc1ccccc1/C=N/NC(=O)CNC(=O)c1ccccc1 | inconclusive: 14.1 µM [inhibitor, partial curve] |
| Cc1ccc(C(=C2C3C=CC2C2C(=O)NC(=O)C32)c2ccc(C)cc2)cc1 (stereo not drawn) | inconclusive: 12.6 µM [inhibitor, partial curve] |
| CCOc1ccccc1Oc1cn[nH]c1-c1ccc(OC)cc1O | inconclusive: 31.6 µM [inhibitor, partial curve] |
| CC(C)(C)C(=O)c1cn(CC(=O)NCc2ccc3c(c2)OCO3)c2ccccc12 | inconclusive: 10 µM [inhibitor, partial curve] |
| COc1cc(SC)ccc1C(=O)NC(C)C | inconclusive: 0.282 µM [inhibitor, full curve, poor fit] |
| COc1cccc(NC(=O)Nc2ccc3c(c2)nnn3C)c1 | inactive |
| CCc1ccc(N2CC(C(=O)Nc3ccc4c(c3)OCCO4)CC2=O)cc1 (stereo not drawn) | inconclusive: 35.5 µM [inhibitor, single point] |
| CCOC(=O)c1sc2nc(N3CCOCC3)c3c(c2c1N)CCN(Cc1ccccc1)C3 | inactive |
| COc1ccc(Cn2c(C(=O)O)c(CNCc3cccc(OC)c3)c3ccc(C)cc32)cc1 | inconclusive: 3.55 µM [inhibitor, full curve] |
| CC1=C/C(=N\OS(=O)(=O)c2ccccc2)C(C)=CC1=O | inconclusive: 20 µM [inhibitor, partial curve] |
| Cc1ccc2cccc(Oc3nnnn3-c3ccccc3)c2n1 | inconclusive: 25.1 µM [inhibitor, partial curve] |
| Cc1cc(S(=O)(=O)Nc2cccc(Cl)c2)c(C)s1 | inconclusive: 15.8 µM [inhibitor, partial curve] |
| COc1ccc(C(=O)NCCC2=CCCCC2)cc1[N+](=O)[O-] | inconclusive: 20 µM [inhibitor, partial curve] |
| O=C(NCc1ccco1)c1cc2n(n1)C(C(F)(F)F)CC(c1ccc(Cl)c(Cl)c1)N2 (stereo not drawn) | inconclusive: 5.62 µM [inhibitor, full curve] |
| Cc1ccc2cccc(SCC(=O)Nc3ccc(F)cc3)c2n1 | inactive |
| O=C(NCc1ccccn1)Nc1cccc(Cl)c1 | inconclusive: 56.2 µM [inhibitor, single point] |
| Cc1ccc(CNC(=O)C(=O)NCC2OCCN2S(=O)(=O)c2ccc3c(c2)OCCO3)cc1 (stereo not drawn) | inconclusive: 39.8 µM [inhibitor, single point] |
